# Measurements as given in PubChem BioAssay AID2451 (National Center for Advancing Translational Sciences (NCATS), 2010).
# “And” between values parts separate entries of the source, which are not always exact repeats. Equal values may be shown once. The whole screen tested about 290,000 compounds, of which about 2,100 (0.72%) were called active. The inconclusive results got no clear call from the source; some entries with a clear call stand among them for comparison. The call rests on the fitted dose curve; in most records, active means well fitted inhibition curve with a large enough effect; inconclusive means small, poorly fitted or top-dose-only effect, or effect the other way; inactive means flat fitted curve, though single readings scatter. Where the call is inconclusive, the potency comes from a doubtful curve fit.
# Biological target: Fructose-bisphosphate aldolase (Giardia intestinalis (strain ATCC 50803 / WB clone C6)) (UniProt A8B2U2)
# Chain of UniProt A8B2U2 (A8B2U2 whole entry, looked up): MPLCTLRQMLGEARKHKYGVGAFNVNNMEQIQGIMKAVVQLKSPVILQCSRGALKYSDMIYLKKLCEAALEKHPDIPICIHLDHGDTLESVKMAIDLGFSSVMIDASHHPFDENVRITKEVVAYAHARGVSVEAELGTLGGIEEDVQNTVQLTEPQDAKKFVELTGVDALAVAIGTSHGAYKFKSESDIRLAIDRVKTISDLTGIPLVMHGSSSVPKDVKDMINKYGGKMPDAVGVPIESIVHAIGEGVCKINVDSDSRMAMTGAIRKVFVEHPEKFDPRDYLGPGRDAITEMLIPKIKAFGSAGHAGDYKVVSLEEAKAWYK
# Test: qHTS Assay for Inhibitors of Fructose-1,6-bisphosphate Aldolase from Giardia Lamblia; further: nearly all actives have a fitted effect of over 55% in size
# Settings: purified Giardia FBPA; activity, negative = inhibition: at 59.6 µM (top of the series) unless noted
# Outline: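 40 nM FBPA preincubated 10 min at RT with compound (up to 57.5 uM final), then substrate plus GAPDH/TPI/NAD/arsenate coupling and diaphorase/resazurin added. Fluorescence read after 20 min at RT, 525/598 nm.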
# On the % scale 0 is the no-effect control and ±100 the full control effect; potency means the concentration at half of the fitted maximal effect; tags describe the fitted curve by direction and shape.
Structure (SMILES),Potency,"activity, negative = inhibition"
O=c1c2ccccc2[se]n1-c1ccccc1,active: 14.1 µM and active: 7.92 µM,
COc1cccc(N=Nc2c(=O)[nH]n3c(C)cc(C)nc23)c1,"inconclusive: 0.63 µM [inhibitor, full curve]",
OC(CNCc1ccccc1)COCc1ccc(Cl)cc1 (stereo unspecified),"inconclusive: 22.3 µM [inhibitor, partial curve]",
CC(/C=N\NC(=O)CN1CCN(S(=O)(=O)c2ccc(C)cc2)CC1)=C\c1ccccc1,,inactive: -0.157%
CC1=CC[C@@H]2[C@@H](C1)c1c(O)cc(CC#CCCCNS(C)(=O)=O)cc1OC2(C)C,"inconclusive: 19.9 µM [inhibitor, partial curve]",
CCC1(c2ccccc2)NC(=S)N(c2ccc(C)c(C)c2)N1 (stereo unspecified),,inactive: 5.83%
CC(C)CC(=O)N1CCN(Cc2ccc(Br)cc2)CC1,"inconclusive: 11.2 µM [inhibitor, partial curve]",
O=C(c1ccco1)N1CCC2(CCCN(c3ccccc3)C2)CC1,,inactive: -7.16%
CCNc1ncc2nc(-c3ccccc3)c(=O)n(Cc3ccc(F)cc3)c2n1,"inconclusive: 31.5 µM [inhibitor, single point]",
OCCN(Cc1ccccc1)Cc1ccccc1F,"inconclusive: 14.1 µM [inhibitor, partial curve]",
CN1CCC(=NNC(=O)c2cc(-c3ccc(Cl)cc3)n[nH]2)CC1,,inactive: -2.28%
O=C1c2ccccc2NC(c2ccc(O)cc2)N1/N=C/c1ccc(O)cc1 (stereo unspecified),,inactive: -16.1%
O=c1c2c(nc3nc(CCc4ccccc4)[nH]n13)CCC2,"inconclusive: 14.1 µM [inhibitor, partial curve]",
Cc1ccc(C2C(C(=O)c3cccs3)=C(O)C(=O)N2CCN2CCOCC2)o1 (stereo unspecified),"inconclusive: 1.99 µM [inhibitor, partial curve]",
Cc1noc(C)c1C(=O)N1CCC2(CCCN(c3ncccn3)C2)CC1,,inactive: -1.81%
O=C(NC(=S)Nc1cccc(F)c1)c1cccc([N+](=O)[O-])c1,"inconclusive: 20 µM [inhibitor, partial curve]",
CC(=O)COC(=O)C1CCN(S(=O)(=O)c2cc([N+](=O)[O-])ccc2Cl)CC1,"inconclusive: 19.9 µM [inhibitor, partial curve]",
C[n+]1c(-c2ccccc2)c2cc(N)ccc2c2ccc(N)cc21,"inconclusive: 1.58 µM [inhibitor, full curve]",
O=C(Nc1ccc2nc(-c3ccc(Br)o3)[nH]c2c1)c1ccco1,,inactive: -19.4%
CCOC(=O)C1CCN(CC(=O)c2c(C)[nH]c3cc(C)ccc23)CC1,,inactive: -8.48%
COc1ccc(CCNCc2ccncc2)cc1OC,"inconclusive: 17.7 µM [inhibitor, partial curve]",
Cc1ccccc1N1CC(C(=O)Nc2nnc(SCc3cccnc3)s2)CC1=O (stereo unspecified),"inconclusive: 28.2 µM [inhibitor, single point]",
N#Cc1ccc(OCC(=O)N/N=C2\CCc3ccccc32)cc1,,inactive: -2.89%
Cc1ccc(NC(=O)CN2CCC(NC(=O)c3ccccc3F)CC2)cc1C,active: 17.8 µM,
CC(Oc1ccccc1F)C(=O)Nc1ccc2ccccc2c1 (stereo unspecified),,inactive: -7.17%
Cc1ccc(C(=O)Nc2ccc(N3CCN(C)CC3)cc2)cc1C,"inconclusive: 35.5 µM [inhibitor, single point]",

Structure (SMILES),Potency,"activity, negative = inhibition"
O=C(O)c1cc(-c2ccc3ccccc3n2)nc2ccccc12,"inconclusive: 2.82 µM [inhibitor, full curve]",
C=CCc1ccc(OCCCCN2CC(C)CC(C)C2)c(OC)c1 (stereo unspecified),"inconclusive: 19.9 µM [inhibitor, partial curve]",
CCN1CCc2c(sc(NC(=O)Cc3ccccc3)c2C(N)=O)C1,"inconclusive: 31.6 µM [inhibitor, single point]",
COc1cc(CN2CCC(Cc3ccccc3)CC2)cc([N+](=O)[O-])c1O,"inconclusive: 14.1 µM [inhibitor, partial curve]",
c1ccc(-c2ccc(OCCCNC3CCCC3)cc2)cc1,"inconclusive: 15.8 µM [inhibitor, partial curve]",
CNC(=S)NC1CC2CCCC(C1)N2Cc1ccccc1OC (stereo unspecified),"inconclusive: 31.6 µM [inhibitor, single point]",
O=C1C=CC2=C3c4cc(O)c(O)cc4CC3(O)COC2=C1O (stereo unspecified),active: 15.8 µM and active: 11.2 µM,
O=C(c1sc2cc([N+](=O)[O-])ccc2c1Cl)N1CCCCC1,,inactive: -3.5%
O=C(O)CCC(=O)Nc1ccc(-c2nc3ccc(C(=O)c4ccccc4)cc3[nH]2)cc1,,inactive: 5.89%
C=CCNC(=S)Nc1cc(S(=O)(=O)N2CCOCC2)ccc1-n1cncn1,"inconclusive: 22.3 µM [inhibitor, partial curve]",
Cc1ccc(C(=O)OCC(=O)c2ccc(Cl)s2)s1,,inactive: -6.89%
CSc1ccc(/C=N/n2c(Cc3ccc(Br)cc3)n[nH]c2=S)cc1,,inactive: -0.213%
CCC(=NCc1ccco1)c1c(C(F)(F)F)[nH]n(-c2nc3ccccc3s2)c1=O,,inactive: -19.3%
Cc1ccccc1C(=O)c1cccn1CC(=O)NC(C)c1ccc2c(c1)OCCO2 (stereo unspecified),"inconclusive: 19.9 µM [activator, partial curve]",
CCn1c(-c2ccncc2)n[nH]c1=S,"inconclusive: 19.9 µM [inhibitor, partial curve]",
COc1cccc(-c2nnc(NC(=O)c3ccc(S(=O)(=O)N4CC(C)OC(C)C4)cc3)o2)c1 (stereo unspecified),"inconclusive: 15.8 µM [activator, partial curve]",
c1ccc(Cc2ccc(OCCCNC3CCCC3)cc2)cc1,"inconclusive: 22.3 µM [inhibitor, partial curve]",
Cc1cc(Br)ccc1OCCOCCN1CCCC1,active: 15.8 µM,
Cc1ccc(CNCc2ccc3c(c2)OCO3)cc1,"inconclusive: 17.8 µM [inhibitor, partial curve]",
CC(=O)c1sc(NC(=O)c2ccc(Cn3cc(Br)cn3)o2)nc1C,"inconclusive: 14.1 µM [activator, partial curve]",
Cc1cc([N+](=O)[O-])c2c(c1C)C1C=CCC1C(c1ccccn1)N2 (stereo unspecified),"inconclusive: 11.2 µM [inhibitor, partial curve]",
CN1CC=C2C(C#N)=C(N)C(C#N)(C#N)[C@H](c3cccs3)[C@H]2C1,"inconclusive: 22.3 µM [inhibitor, single point]",
CC1=NN(Cc2cc(C(C)(C)C)c(O)c(C(C)(C)C)c2)C(=O)C1,"inconclusive: 20 µM [inhibitor, single point]",
CC1CN(Cc2ccccc2Cl)CC(C)O1 (stereo unspecified),"inconclusive: 20 µM [inhibitor, single point]",
COc1ccc(/C=N/Nc2nccnc2Cl)cc1,,inactive: -18.6%
COC(=O)C1=NN(C(=O)c2cccc(Br)c2)C(O)(c2ccc(Cl)cc2)C1 (stereo unspecified),,inactive: 12.1%

Structure (SMILES),Potency,"activity, negative = inhibition"
CCC(C)c1ccc(NC(=S)NCCn2cc(Br)cn2)cc1 (stereo unspecified),,inactive: -2.02%
COC(=O)CNC(=O)c1cc(-c2ccncc2)nc2c(C)c(Cl)ccc12,,inactive: -0.88%
Cc1onc(-c2ccccc2)c1C(=O)NNC(=S)NC(=O)c1ccc(Br)cc1,"inconclusive: 15.8 µM [activator, partial curve]",
O=S(=O)(NCc1ccco1)c1cccc(S(=O)(=O)N2CCCCC2)c1,,inactive: 3.82%
Cc1ccc(-c2csc(N3CCN(c4cc5c(cc4Cl)nc(-c4ccncc4)n5CCN4CCCCC4)CC3)n2)cc1,,inconclusive: 45.6% [activator]
Cc1cnc(C(=O)Nc2nccs2)cn1,active: 19.9 µM,
Cc1cc(C(=O)N/N=C/c2cccc([N+](=O)[O-])c2O)n[nH]1,"inconclusive: 3.15 µM [inhibitor, full curve]",
CN1CCN(C(=O)Nc2ccccc2)CC1,"inconclusive: 19.9 µM [inhibitor, partial curve]",
O=C(O)c1ccc[nH]c1=S,active: 4.46 µM,
O=C(O)c1ccccc1N=Nc1c(O)[nH]c(=O)[nH]c1=O,"inconclusive: 17.7 µM [inhibitor, single point]",
Nc1ccc(N(CCO)CCO)cc1,active: 5 µM,
COc1ccc2[nH]c3c(=O)n(/N=C/c4ccc(OC)c(CN5CCCC5)c4)c(C)nc3c2c1,,inactive: -14.2%
CCOCCCNCc1ccc(OCCC(C)C)c(OC)c1,"inconclusive: 17.7 µM [inhibitor, partial curve]",
COc1ccc(-c2csc(NC(=O)COC(=O)C3=COCCO3)n2)cc1,,inactive: 6.76%
O=C(c1ccc2c(=O)n(Cc3ccc(Cl)cc3)c(=S)[nH]c2c1)N1CCOCC1,"inconclusive: 10 µM [inhibitor, full curve]",
Cc1nc2ccccc2n1S(=O)(=O)c1ccc(F)cc1,"inconclusive: 39.8 µM [inhibitor, single point]",
COC(Cc1n[nH]c(=S)n1-c1ccccc1)OC,"inconclusive: 15.8 µM [inhibitor, partial curve]",
COc1cc(O)c(C(=O)/C=C/c2ccccc2)c(OC)c1,inactive,
COc1ccc(CCC(C)N2CCc3ccccc3C2)cc1 (stereo unspecified),"inconclusive: 28.2 µM [inhibitor, single point]",
O=C(CCN1CCOCC1)Nc1ccc(Br)cc1C(=O)c1ccccc1,"inconclusive: 28.2 µM [inhibitor, single point]",
O=C(c1ccccc1)N1CCC2(CC1)NCCc1[nH]cnc12,"inconclusive: 20 µM [inhibitor, partial curve]",
CC1CN(CCCCSc2ccccc2)CC(C)O1 (stereo unspecified),"inconclusive: 25.1 µM [inhibitor, single point]",
CSc1nc(-c2ccccc2)[nH]c(=S)c1C(C)=O,"inconclusive: 22.3 µM [activator, single point]",
CN(C)c1ccc(CNCCC2(O)CCOC(C)(C)C2)cc1 (stereo unspecified),"inconclusive: 12.6 µM [inhibitor, partial curve]",
